# The list shows a part of the results.
# B1: B725 (Bifidobacterium sp) (protein)
# chain: MNNTTRAVIATAAIGALLIPLAGCGNTTTSSGKTELTVWSWDASIDRAAKSFMKANPDITVKVSNVGSTEETYTALNNAAQAGSGLPDVTLIEYLAIPQFVHSDTLMDLSKVYNTAKLKDTFTPGTWNSVNINGGLYAMPADSGPMAYFYDKDVFDKAGISEPPTTWDEFYEDAKKIRATGSYITSDSGDAGLFNAMMWAMGGHAYKLNDDKLTINIAKDKGAQRFMDLWQKMRDEDLIDVHTKTWTDDWMKSLGDGSIASLISGAWMANNLLQGVPQATGKFRVALLPTIDGTPINGEYGGSGLAITKKIPDGKLDAAKKFVEYVTTNDEGIDARVSNGSFPATTKTLNQKDFLAKTTLRNTDGSDNEFFGGQKYNEIFSQAAKDVTGKWEFLPFEPYARSVYNDNMGSFFAGKTSFRTAADNWQKALKDYAKDQGFTVQ
# How the values were obtained:
# Assay in all cases: glycan array binding signal (z-score within array); higher = stronger binding
# Conditions in all cases: glycan notation: IUPAC condensed, linker removed
# [1] = molecular target: Gal(b1-4)GlcNAc(b1-6)GalNAc
# In short: (§1)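 Glycan array data came from 3228 arrays in the Consortium for Functional Glycomics database, and only arrays with an available protein sequence were kept. Glycan names were put into IUPAC-condensed notation, and columns mapping to the same glycan were averaged. The binding signal is a within-array Z-score, averaged across arrays of one protein sequence run at different concentrations or buffers and across linkers. A negative Z-score can be read as non-binding.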
# [2] = molecular target: Gal(b1-4)GlcNAc(b1-6)[Gal(b1-3)]GalNAc
# In short: as §1
# [3] = molecular target: Gal(b1-4)GlcNAc(b1-6)[Gal(b1-4)GlcNAc(b1-3)]GalNAc
# In short: as §1
# [4] = molecular target: Gal(b1-4)GlcNAc6P
# In short: as §1
# [5] = molecular target: Gal(b1-6)Gal
# In short: as §1
# [6] = molecular target: Gal3S(b1-3)GalNAc
# In short: as §1
# [7] = molecular target: Gal3S(b1-3)GlcNAc
# In short: as §1
# [8] = molecular target: Gal3S(b1-3)[Fuc(a1-4)]GlcNAc
# In short: as §1
# [9] = molecular target: Gal3S(b1-4)Glc
# In short: as §1
# [10] = molecular target: Gal3S(b1-4)Glc6S
# In short: as §1
# [11] = molecular target: Gal3S(b1-4)GlcNAc
# In short: as §1
# [12] = molecular target: Gal3S(b1-4)[Fuc(a1-3)]Glc6S
# In short: as §1
# [13] = molecular target: Gal3S(b1-4)[Fuc(a1-3)]GlcNAc
# In short: as §1
# [14] = molecular target: Gal3S(b1-4)[Fuc(a1-3)]GlcNAc6S
# In short: as §1
# [15] = molecular target: Gal3S4S(b1-4)GlcNAc
# In short: as §1
# [16] = molecular target: Gal3S6S(b1-4)GlcNAc
# In short: as §1
# [17] = molecular target: Gal3S6S(b1-4)GlcNAc6S
# In short: as §1
# [18] = molecular target: Gal4S(b1-4)GlcNAc
# In short: as §1
# [19] = molecular target: Gal4S6S(b1-4)GlcNAc
# In short: as §1
# [20] = molecular target: Gal6P(b1-4)GlcNAc
# In short: as §1
# [21] = molecular target: Gal6S(b1-3)GlcNAc
# In short: as §1
# [22] = molecular target: Gal6S(b1-3)GlcNAc6S
# In short: as §1
# [23] = molecular target: Gal6S(b1-4)Glc
# In short: as §1
# [24] = molecular target: Gal6S(b1-4)Glc6S
# In short: as §1
# [25] = molecular target: Gal6S(b1-4)GlcNAc
# In short: as §1
# [26] = molecular target: Gal6S(b1-4)GlcNAc6S
# In short: as §1
# [27] = molecular target: GalNAc(a1-3)Gal
# In short: as §1
# [28] = molecular target: GalNAc(a1-3)GalNAc
# In short: as §1
# [29] = molecular target: GalNAc(a1-3)GalNAc(b1-3)Gal(a1-4)Gal(b1-4)Glc
# In short: as §1
# [30] = molecular target: GalNAc(a1-3)GalNAc(b1-3)Gal(a1-4)Gal(b1-4)GlcNAc
# In short: as §1
# [31] = molecular target: GalNAc(b1-3)Gal
# In short: as §1
# [32] = molecular target: GalNAc(b1-3)Gal(a1-4)Gal(b1-4)GlcNAc
# In short: as §1
# [33] = molecular target: GalNAc(b1-3)Gal(a1-4)Gal(b1-4)GlcNAc(b1-3)Gal(b1-4)Glc
# In short: as §1
# [34] = molecular target: GalNAc(b1-3)Gal(a1-6)Gal(b1-4)Glc
# In short: as §1
# [35] = molecular target: GalNAc(b1-3)GalNAc
# In short: as §1
# [36] = molecular target: GalNAc(b1-3)GlcNAc
# In short: as §1
# [37] = molecular target: GalNAc(b1-4)Gal(b1-4)Glc
# In short: as §1
# [38] = molecular target: GalNAc(b1-4)GlcNAc
# In short: as §1
binder,measurement,setting,value
B1,glycan array binding signal (z-score),[1],-0.178
same,glycan array binding signal (z-score),[2],-0.203
same,glycan array binding signal (z-score),[3],-0.212
same,glycan array binding signal (z-score),[4],-0.222
same,glycan array binding signal (z-score),[5],-0.194
same,glycan array binding signal (z-score),[6],-0.212
same,glycan array binding signal (z-score),[7],-0.224
same,glycan array binding signal (z-score),[8],-0.196
same,glycan array binding signal (z-score),[9],-0.222
same,glycan array binding signal (z-score),[10],-0.227
same,glycan array binding signal (z-score),[11],-0.209
same,glycan array binding signal (z-score),[12],-0.175
same,glycan array binding signal (z-score),[13],-0.228
same,glycan array binding signal (z-score),[14],-0.222
same,glycan array binding signal (z-score),[15],-0.213
same,glycan array binding signal (z-score),[16],-0.231
same,glycan array binding signal (z-score),[17],-0.173
same,glycan array binding signal (z-score),[18],-0.223
same,glycan array binding signal (z-score),[19],-0.215
same,glycan array binding signal (z-score),[20],-0.219
same,glycan array binding signal (z-score),[21],-0.217
same,glycan array binding signal (z-score),[22],-0.192
same,glycan array binding signal (z-score),[23],-0.205
same,glycan array binding signal (z-score),[24],-0.208
same,glycan array binding signal (z-score),[25],-0.233
same,glycan array binding signal (z-score),[26],-0.219
same,glycan array binding signal (z-score),[27],-0.215
same,glycan array binding signal (z-score),[28],-0.231
same,glycan array binding signal (z-score),[29],-0.209
same,glycan array binding signal (z-score),[30],-0.231
same,glycan array binding signal (z-score),[31],-0.228
same,glycan array binding signal (z-score),[32],-0.212
same,glycan array binding signal (z-score),[33],-0.221
same,glycan array binding signal (z-score),[34],-0.206
same,glycan array binding signal (z-score),[35],-0.204
same,glycan array binding signal (z-score),[36],-0.21
same,glycan array binding signal (z-score),[37],-0.207
same,glycan array binding signal (z-score),[38],-0.219
